Read-outs that look alike come from different tables or passages of the source. No constants are given. Whether binding was seen depends on the method and setting. For some assays here: Binding seen in cells or lysates may run through a third protein. Some results given as binding are weak or reduced against the parent protein; the word gives no strength. For some assays here: Sequences can lack the tags named with a protein. Each block holds one molecule with its values, some of them ahead of it.
How the values were obtained:
[1] = target: GST-ATG14 247-332 (human) (UniProt Q6ZNE5); experiment: pull-down; CHO cells co-transfected with GST-ATG14 247-332 + APP, with or without GULP1 or GULP1m; GST baits captured from cell lysates by glutathione resins; immunoblot
[2] = target: T1, GST-GULP1 1-168 (bacterial bait) (UniProt Q9UBP9); experiment: pull-down; bacterially expressed GST-GULP1 baits (whole or fragments) on Glutathione Sepharose 4B, incubated with transfected cell lysates at 4 °C for an hour; lysis buffer 50 mM Tris-HCl pH 7.5, 150 mM NaCl, 1 mM EDTA, 1% Triton X100; immunoblot; only the target purified
T1 sequence: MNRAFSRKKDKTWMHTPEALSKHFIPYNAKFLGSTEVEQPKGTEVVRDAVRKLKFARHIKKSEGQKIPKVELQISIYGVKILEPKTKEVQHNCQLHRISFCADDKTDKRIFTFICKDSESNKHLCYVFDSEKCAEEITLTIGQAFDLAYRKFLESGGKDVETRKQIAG

Sequences of proteins named here, by UniProt entry; tags and fusion partners are left off. A change or cut given only in a name is not applied to a line headed by its entry. Residues count along the entry.
UniProt Q6ZNE5: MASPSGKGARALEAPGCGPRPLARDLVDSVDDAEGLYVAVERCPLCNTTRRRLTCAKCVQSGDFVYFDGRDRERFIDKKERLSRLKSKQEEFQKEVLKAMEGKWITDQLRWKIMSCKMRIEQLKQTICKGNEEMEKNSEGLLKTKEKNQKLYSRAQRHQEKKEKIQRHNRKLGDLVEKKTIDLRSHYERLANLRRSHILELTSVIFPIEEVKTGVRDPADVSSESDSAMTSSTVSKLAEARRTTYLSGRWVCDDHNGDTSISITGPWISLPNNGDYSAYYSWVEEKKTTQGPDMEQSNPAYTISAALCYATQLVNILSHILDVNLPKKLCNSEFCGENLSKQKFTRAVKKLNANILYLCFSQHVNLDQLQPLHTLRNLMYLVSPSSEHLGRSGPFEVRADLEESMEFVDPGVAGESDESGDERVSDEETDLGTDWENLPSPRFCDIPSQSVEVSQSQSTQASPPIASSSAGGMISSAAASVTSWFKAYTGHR
GST-ATG14 247-332: residues 247-332 of Q6ZNE5
UniProt D4A4K3: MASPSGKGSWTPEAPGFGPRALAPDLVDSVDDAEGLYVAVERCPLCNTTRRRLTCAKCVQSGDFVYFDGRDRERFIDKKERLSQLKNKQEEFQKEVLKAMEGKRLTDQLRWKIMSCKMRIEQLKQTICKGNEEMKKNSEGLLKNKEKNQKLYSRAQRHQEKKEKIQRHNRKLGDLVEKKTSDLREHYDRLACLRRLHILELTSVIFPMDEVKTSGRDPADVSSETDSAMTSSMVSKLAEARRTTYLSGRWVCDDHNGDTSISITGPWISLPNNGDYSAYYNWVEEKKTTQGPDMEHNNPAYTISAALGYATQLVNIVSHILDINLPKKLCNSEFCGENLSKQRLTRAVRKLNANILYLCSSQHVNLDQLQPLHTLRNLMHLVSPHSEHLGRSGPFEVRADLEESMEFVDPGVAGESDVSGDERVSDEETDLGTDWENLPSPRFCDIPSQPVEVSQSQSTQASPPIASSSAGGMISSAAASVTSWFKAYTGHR
UniProt Q99570: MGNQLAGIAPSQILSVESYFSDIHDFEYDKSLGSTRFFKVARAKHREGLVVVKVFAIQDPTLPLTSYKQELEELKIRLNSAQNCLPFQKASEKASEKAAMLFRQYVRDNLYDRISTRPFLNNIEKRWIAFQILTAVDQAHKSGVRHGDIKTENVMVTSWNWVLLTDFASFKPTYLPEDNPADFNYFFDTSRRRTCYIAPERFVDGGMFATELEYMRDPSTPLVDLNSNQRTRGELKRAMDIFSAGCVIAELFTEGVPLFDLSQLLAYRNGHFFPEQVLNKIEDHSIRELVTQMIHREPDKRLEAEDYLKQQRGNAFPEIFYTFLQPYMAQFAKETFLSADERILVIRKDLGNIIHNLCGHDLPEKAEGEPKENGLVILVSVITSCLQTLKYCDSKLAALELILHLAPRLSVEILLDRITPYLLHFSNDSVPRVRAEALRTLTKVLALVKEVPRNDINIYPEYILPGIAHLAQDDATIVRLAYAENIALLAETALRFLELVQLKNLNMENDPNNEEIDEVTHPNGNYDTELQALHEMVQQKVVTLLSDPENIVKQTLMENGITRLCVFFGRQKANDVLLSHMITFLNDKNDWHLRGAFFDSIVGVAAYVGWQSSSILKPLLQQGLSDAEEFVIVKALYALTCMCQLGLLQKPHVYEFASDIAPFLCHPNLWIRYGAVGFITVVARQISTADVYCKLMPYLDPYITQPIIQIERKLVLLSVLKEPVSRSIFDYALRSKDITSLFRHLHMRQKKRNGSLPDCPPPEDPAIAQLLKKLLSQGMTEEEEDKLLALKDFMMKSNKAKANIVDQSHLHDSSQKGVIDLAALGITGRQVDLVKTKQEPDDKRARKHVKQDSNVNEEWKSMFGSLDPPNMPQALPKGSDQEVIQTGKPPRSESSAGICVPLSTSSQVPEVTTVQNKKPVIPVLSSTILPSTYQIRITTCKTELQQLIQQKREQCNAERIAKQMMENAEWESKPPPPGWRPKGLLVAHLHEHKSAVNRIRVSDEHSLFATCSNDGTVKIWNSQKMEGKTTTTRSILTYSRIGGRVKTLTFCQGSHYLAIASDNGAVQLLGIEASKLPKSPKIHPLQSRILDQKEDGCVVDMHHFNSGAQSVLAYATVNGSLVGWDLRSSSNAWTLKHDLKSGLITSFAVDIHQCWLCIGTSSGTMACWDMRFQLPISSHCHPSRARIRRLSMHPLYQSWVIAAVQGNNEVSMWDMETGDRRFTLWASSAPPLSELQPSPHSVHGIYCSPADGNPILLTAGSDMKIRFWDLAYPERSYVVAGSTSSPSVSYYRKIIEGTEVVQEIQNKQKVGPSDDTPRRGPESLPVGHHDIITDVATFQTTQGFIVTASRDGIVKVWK
UniProt O88763: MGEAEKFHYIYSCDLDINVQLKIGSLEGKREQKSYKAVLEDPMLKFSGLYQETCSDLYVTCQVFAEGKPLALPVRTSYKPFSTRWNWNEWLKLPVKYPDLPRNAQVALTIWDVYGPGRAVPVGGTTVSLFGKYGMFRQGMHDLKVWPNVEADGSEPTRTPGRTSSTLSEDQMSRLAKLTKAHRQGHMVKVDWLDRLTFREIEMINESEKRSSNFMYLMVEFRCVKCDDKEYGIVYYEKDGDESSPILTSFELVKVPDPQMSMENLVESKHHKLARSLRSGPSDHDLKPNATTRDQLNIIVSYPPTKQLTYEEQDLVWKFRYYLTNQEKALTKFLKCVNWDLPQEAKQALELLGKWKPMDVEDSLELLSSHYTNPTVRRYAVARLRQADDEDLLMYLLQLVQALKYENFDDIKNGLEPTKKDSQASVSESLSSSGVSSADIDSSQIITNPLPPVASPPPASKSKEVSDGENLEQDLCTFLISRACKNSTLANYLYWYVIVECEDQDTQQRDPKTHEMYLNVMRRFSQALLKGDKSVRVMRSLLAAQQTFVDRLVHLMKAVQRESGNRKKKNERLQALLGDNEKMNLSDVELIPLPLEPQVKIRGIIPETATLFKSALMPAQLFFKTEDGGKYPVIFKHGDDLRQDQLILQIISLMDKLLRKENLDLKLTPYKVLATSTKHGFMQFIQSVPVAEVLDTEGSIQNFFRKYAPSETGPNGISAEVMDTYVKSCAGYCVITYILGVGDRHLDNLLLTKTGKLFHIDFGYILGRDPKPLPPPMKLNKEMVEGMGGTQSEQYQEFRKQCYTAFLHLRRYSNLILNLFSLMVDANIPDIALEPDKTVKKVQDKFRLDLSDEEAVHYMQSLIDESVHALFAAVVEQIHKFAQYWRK
UniProt P08592, residues 18-770: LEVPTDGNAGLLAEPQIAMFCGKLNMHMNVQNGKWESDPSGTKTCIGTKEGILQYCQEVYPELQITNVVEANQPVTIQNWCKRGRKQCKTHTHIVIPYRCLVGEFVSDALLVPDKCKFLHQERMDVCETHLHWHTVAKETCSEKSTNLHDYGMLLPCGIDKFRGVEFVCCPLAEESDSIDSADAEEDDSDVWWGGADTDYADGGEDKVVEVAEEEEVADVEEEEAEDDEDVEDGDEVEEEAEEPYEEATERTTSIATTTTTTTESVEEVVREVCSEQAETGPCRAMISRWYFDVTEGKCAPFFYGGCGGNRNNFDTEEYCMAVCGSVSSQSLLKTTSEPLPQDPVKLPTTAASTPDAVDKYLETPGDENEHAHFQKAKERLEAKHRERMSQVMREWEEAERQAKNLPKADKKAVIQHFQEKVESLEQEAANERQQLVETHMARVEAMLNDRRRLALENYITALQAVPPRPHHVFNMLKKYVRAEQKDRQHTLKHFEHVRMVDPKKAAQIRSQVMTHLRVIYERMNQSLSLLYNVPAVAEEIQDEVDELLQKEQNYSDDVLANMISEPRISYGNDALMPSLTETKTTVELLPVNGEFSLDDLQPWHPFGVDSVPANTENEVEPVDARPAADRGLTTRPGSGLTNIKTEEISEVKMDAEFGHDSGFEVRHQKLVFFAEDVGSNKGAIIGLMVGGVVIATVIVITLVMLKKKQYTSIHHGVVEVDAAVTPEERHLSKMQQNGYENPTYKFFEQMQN
UniProt Q14457: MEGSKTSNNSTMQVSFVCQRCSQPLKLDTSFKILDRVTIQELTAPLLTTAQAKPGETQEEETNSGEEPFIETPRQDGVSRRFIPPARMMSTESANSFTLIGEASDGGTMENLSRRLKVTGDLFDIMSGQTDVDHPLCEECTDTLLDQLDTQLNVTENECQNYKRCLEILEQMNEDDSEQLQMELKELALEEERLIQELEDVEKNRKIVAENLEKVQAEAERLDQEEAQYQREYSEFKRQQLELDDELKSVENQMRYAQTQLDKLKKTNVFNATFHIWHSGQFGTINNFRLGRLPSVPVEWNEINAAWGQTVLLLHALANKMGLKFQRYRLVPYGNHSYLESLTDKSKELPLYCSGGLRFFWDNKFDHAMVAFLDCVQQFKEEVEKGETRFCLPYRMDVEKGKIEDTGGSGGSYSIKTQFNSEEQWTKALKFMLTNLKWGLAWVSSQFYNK
UniProt P0C0R5: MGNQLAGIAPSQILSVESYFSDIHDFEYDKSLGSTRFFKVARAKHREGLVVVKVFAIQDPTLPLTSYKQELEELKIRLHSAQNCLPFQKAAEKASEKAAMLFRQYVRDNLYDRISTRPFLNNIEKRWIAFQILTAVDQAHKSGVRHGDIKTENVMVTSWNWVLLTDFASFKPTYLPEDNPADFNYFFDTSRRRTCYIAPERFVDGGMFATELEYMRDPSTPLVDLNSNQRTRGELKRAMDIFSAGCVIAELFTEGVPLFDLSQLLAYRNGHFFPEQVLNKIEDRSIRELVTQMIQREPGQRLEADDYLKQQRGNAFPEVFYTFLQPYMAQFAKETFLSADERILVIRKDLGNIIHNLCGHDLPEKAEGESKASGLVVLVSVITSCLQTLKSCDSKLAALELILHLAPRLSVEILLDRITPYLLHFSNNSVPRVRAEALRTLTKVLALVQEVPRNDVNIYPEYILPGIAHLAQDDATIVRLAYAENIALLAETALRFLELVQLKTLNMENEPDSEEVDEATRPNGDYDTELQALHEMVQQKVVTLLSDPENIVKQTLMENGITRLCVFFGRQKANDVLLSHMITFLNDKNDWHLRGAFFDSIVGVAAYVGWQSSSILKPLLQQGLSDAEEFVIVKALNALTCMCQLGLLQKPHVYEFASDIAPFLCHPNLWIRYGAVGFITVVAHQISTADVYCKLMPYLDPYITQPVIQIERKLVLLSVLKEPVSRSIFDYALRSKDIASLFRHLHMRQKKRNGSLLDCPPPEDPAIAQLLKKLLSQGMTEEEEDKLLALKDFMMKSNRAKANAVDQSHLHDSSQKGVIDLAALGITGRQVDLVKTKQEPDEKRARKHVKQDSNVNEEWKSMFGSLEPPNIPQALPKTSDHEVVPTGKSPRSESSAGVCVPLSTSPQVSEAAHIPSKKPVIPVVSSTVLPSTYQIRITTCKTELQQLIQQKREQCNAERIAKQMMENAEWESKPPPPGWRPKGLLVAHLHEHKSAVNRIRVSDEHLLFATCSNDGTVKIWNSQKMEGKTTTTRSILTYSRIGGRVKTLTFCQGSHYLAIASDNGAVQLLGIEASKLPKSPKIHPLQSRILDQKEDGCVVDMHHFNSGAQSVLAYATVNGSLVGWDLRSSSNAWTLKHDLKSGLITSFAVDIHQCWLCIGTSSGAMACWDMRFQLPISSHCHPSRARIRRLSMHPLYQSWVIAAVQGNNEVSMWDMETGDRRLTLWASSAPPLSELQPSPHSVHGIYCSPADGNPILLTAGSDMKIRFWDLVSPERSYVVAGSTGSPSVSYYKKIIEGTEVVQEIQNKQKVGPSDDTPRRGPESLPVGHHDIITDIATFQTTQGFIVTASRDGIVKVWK
UniProt Q91XJ1: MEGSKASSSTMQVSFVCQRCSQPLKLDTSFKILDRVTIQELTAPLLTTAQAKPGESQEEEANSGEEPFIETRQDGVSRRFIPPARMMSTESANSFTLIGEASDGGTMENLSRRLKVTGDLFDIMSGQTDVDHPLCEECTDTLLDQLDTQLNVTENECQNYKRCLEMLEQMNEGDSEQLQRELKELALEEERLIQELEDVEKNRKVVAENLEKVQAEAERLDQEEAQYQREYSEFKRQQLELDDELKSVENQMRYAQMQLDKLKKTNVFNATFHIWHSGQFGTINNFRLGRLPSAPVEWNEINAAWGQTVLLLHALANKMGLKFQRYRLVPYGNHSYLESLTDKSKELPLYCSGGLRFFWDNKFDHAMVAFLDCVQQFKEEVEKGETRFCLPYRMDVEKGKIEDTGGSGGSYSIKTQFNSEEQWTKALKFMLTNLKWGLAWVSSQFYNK

[3] = target: T2, GST-GULP1 (UniProt Q9UBP9); experiment: as above
T2 sequence: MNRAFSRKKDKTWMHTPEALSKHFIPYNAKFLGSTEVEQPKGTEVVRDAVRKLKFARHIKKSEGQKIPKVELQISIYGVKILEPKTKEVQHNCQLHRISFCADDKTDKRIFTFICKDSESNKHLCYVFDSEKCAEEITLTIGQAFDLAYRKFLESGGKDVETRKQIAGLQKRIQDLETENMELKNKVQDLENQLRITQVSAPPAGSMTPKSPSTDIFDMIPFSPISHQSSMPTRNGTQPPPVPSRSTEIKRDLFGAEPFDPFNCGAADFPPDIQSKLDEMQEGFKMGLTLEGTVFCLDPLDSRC

[4] = target: ATG14 (endogenous, rat brain) (rat (endogenous in rat brain)) (UniProt D4A4K3); experiment: co-IP; endogenous ATG14 immunoprecipitated from total rat brain lysate with an anti-ATG14 antibody; immunoblot
[5] = target: His6-ATG14 (human) (UniProt Q6ZNE5); experiment: pull-down; bacterially expressed His6-ATG14 baits; GST-GULP1 fragments in transfected cell lysate; GST proteins immunoblotted; only the target purified
[6] = target: GST-ATG14 247-332 (human) (UniProt Q6ZNE5); experiment: pull-down; CHO cells co-transfected with GST-ATG14 247-332 + APP, with or without GULP1 or GULP1m; GST baits captured from cell lysates by glutathione resins; immunoblot; remark: listed apart in the source
[7] = target: Flag-tagged full-length human ATG14 (human) (UniProt Q6ZNE5); experiment: proximity ligation; Duolink in situ PLA in HEK293 cells transfected with GULP1 + ATG14-FLAG; goat anti-GULP1 P19 and mouse anti-FLAG M2
[8] = target: His6-ATG14 (human) (UniProt Q6ZNE5); experiment: pull-down; in vitro binding: GST or GST-GULP1 purified from E. coli mixed with Ni-NTA resins coated with His6-ATG14 for 16 h at 4 °C; detected by rat anti-GST; both purified
[9] = target: Flag-tagged full-length human ATG14 (human) (UniProt Q6ZNE5); experiment: co-IP; HEK293 cells transfected with ATG14-FLAG and GULP1; ATG14-FLAG immunoprecipitated with mouse anti-FLAG M2 for 16 h at 4 °C, protein G sepharose; immunoblot

binding [3]: no binding
Molecule: Vps15 (from UniProt Q99570 1-1358)

binding [5]: no binding
B1: GST-GULP1 1-56 (domain or fragment, UniProt Q9UBP9 1-56)
chain: MNRAFSRKKDKTWMHTPEALSKHFIPYNAKFLGSTEVEQPKGTEVVRDAVRKLKFA

binding [5]: binds
B2: GST-GULP1 1-112 (domain or fragment, UniProt Q9UBP9 1-112)
chain: MNRAFSRKKDKTWMHTPEALSKHFIPYNAKFLGSTEVEQPKGTEVVRDAVRKLKFARHIKKSEGQKIPKVELQISIYGVKILEPKTKEVQHNCQLHRISFCADDKTDKRIFT

binding [8]: binds
B6: GST-GULP1 (protein, UniProt Q9UBP9 1-304)
chain: T2 sequence

binding [5]: binds
B8: GST-GULP1 1-168 (in lysate, Fig. 2G) (domain or fragment, UniProt Q9UBP9 1-168)
chain: T1 sequence

The remaining lines, values behind:

Molecule: APP695 (from UniProt P05067-4 18-695)
binding [1]: binds

Molecule: Flag-tagged full-length human ATG14 (from UniProt Q6ZNE5 1-492)
binding [2]: binds
binding [3]: binds

Molecule: Vps34 (endogenous, rat brain) (from UniProt O88763 1-887)
binding [4]: binds

Molecule: APP (endogenous, rat brain) (from UniProt P08592 18-770)
binding [4]: binds

Molecule: Beclin1 (from UniProt Q14457 1-450)
binding [3]: no binding

Molecule: Vps15 (endogenous, rat brain) (from UniProt P0C0R5 1-1358)
binding [4]: binds

Molecule: Beclin1 (endogenous, rat brain) (from UniProt Q91XJ1 1-448)
binding [4]: binds

B3: GULP1 (endogenous, rat brain) (protein, UniProt Q5PQS4 1-304)
chain: MNRAFSRKKDKTWMHMPEALSKHYVPYNAKFLGSTEVEQPKGTEVVRDAVRKLKFARHIKKSEGQKIPKVELQISIYGVKILEPKTKEVQHNCQLHRISFCADDKTDKRIFTFICKDSESNKHLCFVFDSEKCAEEITLTIGQAFDLAYRKFLESGGKDVETRKQIAGMQKRIQDLETENMELKNKVQDLENRLRTTQVSSTPAGGVTVTSPSTDIFDMIPFSPISHPSPTSAGNGTQLPPIPSRSSEIKRDLFGAEPFDPFNCGAGDFPPDIQSKLDEMQEGFKMGLTLEGTVFCLDPLDSRC
binding [4]: binds

B4: GULP1 (transfected in CHO cells) (protein, UniProt Q9UBP9 1-304)
chain: T2 sequence
binding [6]: binds

B5: GULP1 (transfected, tag not told) (protein, UniProt Q9UBP9 1-304)
chain: T2 sequence
binding [7]: binds

B7: HA-tagged full-length GULP1 (protein, UniProt Q9UBP9 1-304)
chain: T2 sequence
binding [9]: binds

From PMC11335243
